No constants are given. Whether binding was seen depends on the method and setting. In cells and extracts the contact can be indirect.
Biological target: T1, full length murine TAF3 (mTAF3), Sf9 extract (mouse) (UniProt Q5HZG4)
T1 sequence: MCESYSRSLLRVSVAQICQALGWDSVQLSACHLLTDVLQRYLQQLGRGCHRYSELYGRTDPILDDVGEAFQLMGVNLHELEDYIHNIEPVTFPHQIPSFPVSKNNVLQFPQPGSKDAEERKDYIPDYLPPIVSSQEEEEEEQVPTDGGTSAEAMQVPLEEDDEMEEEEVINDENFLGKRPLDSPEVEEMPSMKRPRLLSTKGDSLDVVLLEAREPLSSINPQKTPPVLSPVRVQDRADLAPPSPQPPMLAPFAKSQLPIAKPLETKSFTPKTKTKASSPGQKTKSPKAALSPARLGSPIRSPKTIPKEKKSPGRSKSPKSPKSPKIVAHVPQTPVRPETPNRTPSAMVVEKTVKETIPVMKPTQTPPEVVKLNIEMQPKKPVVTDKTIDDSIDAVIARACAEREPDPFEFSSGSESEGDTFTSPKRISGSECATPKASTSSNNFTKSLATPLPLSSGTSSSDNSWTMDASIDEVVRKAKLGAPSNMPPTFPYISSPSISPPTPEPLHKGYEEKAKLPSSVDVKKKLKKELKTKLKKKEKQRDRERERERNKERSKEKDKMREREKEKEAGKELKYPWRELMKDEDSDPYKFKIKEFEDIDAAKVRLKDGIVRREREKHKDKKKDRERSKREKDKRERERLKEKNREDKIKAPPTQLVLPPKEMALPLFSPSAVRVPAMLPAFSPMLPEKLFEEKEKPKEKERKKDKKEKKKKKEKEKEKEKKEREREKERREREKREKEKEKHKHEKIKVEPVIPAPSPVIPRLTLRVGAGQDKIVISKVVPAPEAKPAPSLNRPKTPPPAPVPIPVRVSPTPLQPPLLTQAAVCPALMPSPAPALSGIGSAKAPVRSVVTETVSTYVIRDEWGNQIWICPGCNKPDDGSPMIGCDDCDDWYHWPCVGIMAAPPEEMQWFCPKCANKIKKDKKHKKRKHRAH
Test: co-IP; in vitro translated 35S-labelled proteins mixed with Sf9 extract overexpressing mTAF3; immunoprecipitation with anti-TAF3 39TA2F5; washed 3 times with PBS and once with PBS with 200 mM KCl; fluorography

binding: no binding
B1: Drosophila melanogaster ADA2A, in vitro translated (protein, UniProt Q7KSD8 1-562)
chain: MSFMNPVDMVDEDAADLQFPKVALLHIFTTLNCLFAVEPLGPQVKRFIHAHQNEHTRNSMVLYNPHTLHRYLEEMEEKTRDQNSSVPSATKDANRCATCRCSLTEPYIKCSECLDTLLCLQCFSRGKEAFSHRNNHAYIIVRDNIQVFADEPHWTARDERILLKTLRTHGYGNWEAVSQALDQRHEPAEVRRHYHDCYFGGIFERLLNLKHARDSYVPERMPYVFKMRSLDPPRHDDIASMQFRLSAGYRCARGDFDTPYDTSAESLLSIMVDHRGRDDDNEASESEFEREVTEELQLGLVRAYNNRLRERQRRYKIMRQHGLIMPNRTVSWISKYVHAFGSDASCMRFLGFMQICPDPIKFDMLLESLRYYRELHSQLHKLYDLREHGVRTLSGAKLYARLSKERQQAQRDYSRLKQTDAFDWQQLVQHYESNRSGDPGPLAINSKLYVMNTRRKASPIEIGGGKHFTHCLTPTEYNFSLIPDLPGYSKLDDGERKLCSVARLVPQSYLDYKNQLVTEQAKLGYLRLADARRLIKIDVNKTRQIYDFLLEHGHISRPPSYG
modifications: 35S methionine label

Source: article PMC2441632
